The text below walks through data of publication PMC7205891.

By UniProt entry, the sequences of proteins in these tests, tags left out.
UniProt Q99873: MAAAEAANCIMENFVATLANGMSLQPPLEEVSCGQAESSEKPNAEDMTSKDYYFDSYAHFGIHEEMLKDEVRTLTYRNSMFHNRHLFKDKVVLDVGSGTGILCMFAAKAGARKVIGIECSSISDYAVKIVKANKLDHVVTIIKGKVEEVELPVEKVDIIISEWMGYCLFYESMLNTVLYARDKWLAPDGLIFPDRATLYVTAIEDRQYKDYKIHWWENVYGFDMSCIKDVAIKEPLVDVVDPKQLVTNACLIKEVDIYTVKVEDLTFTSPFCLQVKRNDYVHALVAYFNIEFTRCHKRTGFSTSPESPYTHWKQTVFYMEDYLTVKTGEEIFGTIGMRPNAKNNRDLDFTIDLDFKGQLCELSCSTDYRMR

Where two headings read alike, the source gives them in different places. No constants are given. Whether binding was seen depends on the method and setting. In cells and extracts the contact can be indirect. Some binding calls cover weakened binding; strength is not graded here.

For assay [1], the target named is Flag-tagged full-length human UBAP2L, wild type (human) (UniProt Q14157). The experiment in a line: co-IP; HEK293 cells expressing Flag-UBAP2L wild type or mutants; lysis in 0.3% CHAPS, 40 mM HEPES pH 7.4, 150 mM NaCl; IP with Flag antibody and protein G Sepharose, 4 °C; WB of endogenous proteins; no RNase A; with/without AS (500 μM, 1 h), stress recovery, PRMT1-siRNA, HA-PRMT1, Adox, UBAP2L knock-down; some lanes with EE (2 mM EDTA, 2.5 mM EGTA) or 5 mM MgCl2 in the lysis buffer.

For assay [2], the target named is Flag-tagged UBAP2L Δ495–526 (lacking the DUF3695 domain) (human) (UniProt Q14157). The assay is described as above.
In assay [3] the target is Flag-tagged UBAP2L Δ239–290 (lacking the two putative RNA-binding regions) (human) (UniProt Q14157). The assay is described as above.
Assay [4] concerns the target Flag-tagged UBAP2L with deleted amino acids 2–130 (lacking the UBA domain) (human) (UniProt Q14157). The assay is described as above.
Assay [5] concerns the target Flag-tagged UBAP2L R_(187+190)A (human) (UniProt Q14157). Described as above.
The target of assay [6] is Flag-tagged UBAP2L R187A (human) (UniProt Q14157). Described as above.
The target of assay [7] is Flag-tagged UBAP2L R190A (human) (UniProt Q14157). The assay is described as above.
Assay [8] concerns the target Flag-tagged UBAP2L Δ131–190 (lacking the RGG motif) (human) (UniProt Q14157). The assay is described as above.
The target in assay [9] is Flag-tagged full-length human UBAP2L, wild type (human) (UniProt Q14157). The experiment in a line: condition: only with RNase A (40 μg/ml) in the lysis buffer; co-IP; HEK293 cells expressing Flag-UBAP2L, AS-treated; RNase A (40 μg/ml) in the lysis buffer, alone, with EE (2 mM EDTA, 2.5 mM EGTA), or with EE and 5 mM MgCl2; Flag precipitates analysed by WB.
The target of assay [10] is endogenous UBAP2L (human (endogenous in HEK293)) (UniProt Q14157). The experiment in a line: co-IP; endogenous UBAP2L immunoprecipitated from normal HEK293 cell extracts, WB of G3BP2 in the precipitates.
Assay [11] deals with Flag-tagged full-length human UBAP2L, wild type (human) (UniProt Q14157). The experiment in a line: condition: only with RNase A (40 μg/ml) and 5 mM MgCl2 in the lysis buffer; co-IP; HEK293 cells expressing Flag-UBAP2L, AS-treated; RNase A (40 μg/ml) and 5 mM MgCl2 in the lysis buffer, no EE; Flag precipitates analysed by WB.
The target is the same in assay [12]. The experiment in a line: co-IP; HEK293 cells expressing Flag-UBAP2L wild type or mutants; lysis in 0.3% CHAPS, 40 mM HEPES pH 7.4, 150 mM NaCl; IP with Flag antibody and protein G Sepharose, 4 °C; WB of endogenous proteins; no RNase A; with/without AS (500 μM, 1 h), stress recovery, PRMT1-siRNA, HA-PRMT1, Adox, UBAP2L knock-down; some lanes with EE (2 mM EDTA, 2.5 mM EGTA) or 5 mM MgCl2 in the lysis buffer. This is another data set of the same source.

The target of assay [13] is Flag-tagged UBAP2L Δ495–526 (lacking the DUF3695 domain) (human) (UniProt Q14157). The assay is described as above. The source holds these as a separate data set.
Assay [14] has as its target Flag-tagged UBAP2L Δ239–290 (lacking the two putative RNA-binding regions) (human) (UniProt Q14157). The description is as above. This is another data set of the same source.
In assay [15] the target is Flag-tagged UBAP2L with deleted amino acids 2–130 (lacking the UBA domain) (human) (UniProt Q14157). The assay is described as above. This is another data set of the same source.
In assay [16] the target is Flag-tagged UBAP2L Δ131–190 (lacking the RGG motif) (human) (UniProt Q14157). Described as above. This is another data set of the same source.

Regarding “protein arginine methyltransferase PRMT1, endogenous (from UniProt Q99873 1-371) (enzyme)”, the binding entry in assay [1], in assay [2], in assay [3], in [4], in assay [5] and in [6] was “binds” throughout. For the same molecule, the binding entry was “binds” in [7] and “no binding” in [8].

B1: ras GTPase-activating protein-binding protein 2 (G3BP2), endogenous (protein, UniProt Q9UN86 1-482)
chain: MVMEKPSPLLVGREFVRQYYTLLNKAPEYLHRFYGRNSSYVHGGVDASGKPQEAVYGQNDIHHKVLSLNFSECHTKIRHVDAHATLSDGVVVQVMGLLSNSGQPERKFMQTFVLAPEGSVPNKFYVHNDMFRYEDEVFGDSEPELDEESEDEVEEEQEERQPSPEPVQENANSGYYEAHPVTNGIEEPLEESSHEPEPEPESETKTEELKPQVEEKNLEELEEKSTTPPPAEPVSLPQEPPKAFSWASVTSKNLPPSGTVSSSGIPPHVKAPVSQPRVEAKPEVQSQPPRVREQRPRERPGFPPRGPRPGRGDMEQNDSDNRRIIRYPDSHQLFVGNLPHDIDENELKEFFMSFGNVVELRINTKGVGGKLPNFGFVVFDDSEPVQRILIAKPIMFRGEVRLNVEEKKTRAARERETRGGGDDRRDIRRNDRGPGGPRGIVGGGMMRDRDGRGPPPRGGMAQKLGSGRGTGQMEGRFTGQRR
Consider B1, for which the binding result is listed as “no binding” in assay [9]; “binds” in assay [10]; “no binding” in assay [11]; “binds” in assay [12]; “no binding” in assay [13]; “binds” in assay [14]. The binding entry in [15] is “binds”; in [16], “no binding”.
